From patent publication US20250163168A1, “NOVEL ANTIBODIES AND ANTIBODY CONJUGATES FOR THE TREATMENT OF METABOLIC DISORDERS” (PFIZER INC., priority 2023, published 2025)

What was measured:
[1] = target: human GIPR (hGIPR), full length (human) (UniProt P48546); assay: cell-based or functional assay
[2] = target: T1, Human GIPR ECD (GIPR extra cellular domain) (human); assay: SPR (Biacore 8K, 37 C); antibody captured on anti-human IgG, human GIPR ECD as analyte; 1:1 model
T1 sequence: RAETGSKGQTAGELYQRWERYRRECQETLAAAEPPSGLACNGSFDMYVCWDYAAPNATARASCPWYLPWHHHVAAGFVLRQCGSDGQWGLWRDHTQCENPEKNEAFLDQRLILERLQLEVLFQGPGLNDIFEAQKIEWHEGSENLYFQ

Human GIPR-CHO cAMP Antagonist Activity IC50 [1]: 30.4 nM
Kd [2]: 19.2 nM
B1: benchmark antibody 2G10, the fully human monoclonal anti-GIPR antagonist antibody portion of AMG 133 (maridebart cafraglutide) (antibody, INN chains, looked up, V domains shown)
VH: QVQLVESGGGVVQPGRSLRLSCAASGFTFSNYGMHWVRQAPGEGLEWVAAIWFDASDKYYAD[about 20 residues left out]MNSLRAEDTAVYYCARDQAIFGVVPDYWGQGTLVTVSS
VL: EIVMTQSPATLSVSPGERATLSCRASQSVSSNLAWYQQKPGQAPRLLIYGAATRATGIPARVSGSGSGTEFTLTISSLQSEDFAVYYCQQYNNWPLTFGGGTKVEIK
